# Assay results taken from publication PMC9911399, “Two distinct binding modes provide the RNA-binding protein RbFox with extraordinary sequence specificity”.
# Numbering of substitutions follows the chain as printed; changes in the protein carry UniProt numbers. This is one part of the list.
# T1: RBFOX1 RRM RbFoxmut (Fox-RRM*) (Homo sapiens, UniProt Q9NWB1 109-208, R118D;E147R;N151S;E152T)
# T1 sequence: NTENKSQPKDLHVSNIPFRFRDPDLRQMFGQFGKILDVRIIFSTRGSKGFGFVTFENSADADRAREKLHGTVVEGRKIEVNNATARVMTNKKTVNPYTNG
# B1: CGCCCGG (DNA:RNA)
# RNA: GGGAGACCGGAAUUCAGAUUGUCCCGCCCGGUUAAAUCCCGUCGUAGCCACCA
# DNA 1: CAATCTGAATTCCGGTCTCCC
# DNA 2: TGGTGGCTACGACGGGATT
# B2: ACCAUGG (DNA:RNA)
# RNA: B1 RNA with C25A, G26C, C28A, C29U
# DNA 1: CAATCTGAATTCCGGTCTCCC
# DNA 2: TGGTGGCTACGACGGGATT
# B3: CAUGGGA (DNA:RNA)
# RNA: B1 RNA with G26A, C27U, C28G, C29G, G31A
# DNA 1: CAATCTGAATTCCGGTCTCCC
# DNA 2: TGGTGGCTACGACGGGATT
# B4: CAUGUAU (DNA:RNA)
# RNA: B1 RNA with G26A, C27U, C28G, C29U, G30A, G31U
# DNA 1: CAATCTGAATTCCGGTCTCCC
# DNA 2: TGGTGGCTACGACGGGATT
# B5: CACAGAG (DNA:RNA)
# RNA: B1 RNA with G26A, C28A, C29G, G30A
# DNA 1: CAATCTGAATTCCGGTCTCCC
# DNA 2: TGGTGGCTACGACGGGATT
# B6: GCUACCG (DNA:RNA)
# RNA: B1 RNA with C25G, G26C, C27U, C28A, G30C
# DNA 1: CAATCTGAATTCCGGTCTCCC
# DNA 2: TGGTGGCTACGACGGGATT
# B7: AGGGAAC (DNA:RNA)
# RNA: B1 RNA with C25A, C27G, C28G, C29A, G30A, G31C
# DNA 1: CAATCTGAATTCCGGTCTCCC
# DNA 2: TGGTGGCTACGACGGGATT
# B8: CGUCCGC (DNA:RNA)
# RNA: B1 RNA with C27U, G31C
# DNA 1: CAATCTGAATTCCGGTCTCCC
# DNA 2: TGGTGGCTACGACGGGATT
# B9: UAGAUCC (DNA:RNA)
# RNA: GGGAGACCGGAAUUCAGAUUGUCCUAGAUCCUUAAAUCCCGUCGUAGCCACCA
# DNA 1: CAATCTGAATTCCGGTCTCCC
# DNA 2: TGGTGGCTACGACGGGATT
# B10: CAAGAGG (DNA:RNA)
# RNA: B1 RNA with G26A, C27A, C28G, C29A
# DNA 1: CAATCTGAATTCCGGTCTCCC
# DNA 2: TGGTGGCTACGACGGGATT
# B11: CGUGAUG (DNA:RNA)
# RNA: B1 RNA with C27U, C28G, C29A, G30U
# DNA 1: CAATCTGAATTCCGGTCTCCC
# DNA 2: TGGTGGCTACGACGGGATT
# B12: GUCGUUA (DNA:RNA)
# RNA: B1 RNA with C25G, G26U, C28G, C29U, G30U, G31A
# DNA 1: CAATCTGAATTCCGGTCTCCC
# DNA 2: TGGTGGCTACGACGGGATT
# B13: CGGUCAU (DNA:RNA)
# RNA: B1 RNA with C27G, C28U, G30A, G31U
# DNA 1: CAATCTGAATTCCGGTCTCCC
# DNA 2: TGGTGGCTACGACGGGATT
# B14: UCCAUCC (DNA:RNA)
# RNA: B9 RNA with A26C, G27C
# DNA 1: CAATCTGAATTCCGGTCTCCC
# DNA 2: TGGTGGCTACGACGGGATT
# B15: CACACCG (DNA:RNA)
# RNA: B1 RNA with G26A, C28A, G30C
# DNA 1: CAATCTGAATTCCGGTCTCCC
# DNA 2: TGGTGGCTACGACGGGATT
# B16: AUCGGGU (DNA:RNA)
# RNA: B1 RNA with C25A, G26U, C28G, C29G, G31U
# DNA 1: CAATCTGAATTCCGGTCTCCC
# DNA 2: TGGTGGCTACGACGGGATT
# B17: AUCCAGG (DNA:RNA)
# RNA: B1 RNA with C25A, G26U, C29A
# DNA 1: CAATCTGAATTCCGGTCTCCC
# DNA 2: TGGTGGCTACGACGGGATT
# B18: GAGGAAA (DNA:RNA)
# RNA: B9 RNA with U25G, A28G, U29A, C30A, C31A
# DNA 1: CAATCTGAATTCCGGTCTCCC
# DNA 2: TGGTGGCTACGACGGGATT
# B19: UAAAGUA (DNA:RNA)
# RNA: B9 RNA with G27A, U29G, C30U, C31A
# DNA 1: CAATCTGAATTCCGGTCTCCC
# DNA 2: TGGTGGCTACGACGGGATT
# B20: GCUUUGC (DNA:RNA)
# RNA: B9 RNA with U25G, A26C, G27U, A28U, C30G
# DNA 1: CAATCTGAATTCCGGTCTCCC
# DNA 2: TGGTGGCTACGACGGGATT
# Molecular target: T1, RBFOX1 RRM RbFoxmut (Fox-RRM*)
# Experiment: EMSA; HiTS-Eq, 1 nM pool, 10 min; buffer printed only for the single-RNA assays: 10 mM Tris pH 7.5, 150 mM NaCl, 3.4 mM EDTA, 0.001% NP-40, 30 C
# Conditions: tags: His6 N-terminal (pET28a); label: 5' 32P
# In short: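 A pool of RNA with 7 randomized nucleotides, 5′-radiolabelled and with DNA-annealed flanks, was equilibrated at 1 nM for 10 min in 50 µL with purified RbFox RRM, wild type or mutant, across increasing protein concentrations. Free RNA was separated by 8% native PAGE, excised, reverse-transcribed, barcoded by PCR and sequenced. Relative association constants were obtained from read-count changes of each RNA species versus the control reaction and normalised to the cognate motif.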
row,Binder,binding signal
1,B1,0.063 KA relative to UGCAUGU
2,B2,0.0839 KA relative to UGCAUGU
3,B3,0.0687 KA relative to UGCAUGU
4,B4,0.154 KA relative to UGCAUGU
5,B5,0.124 KA relative to UGCAUGU
6,B6,0.0935 KA relative to UGCAUGU
7,B7,0.0944 KA relative to UGCAUGU
8,B8,0.0851 KA relative to UGCAUGU
9,B9,0.0627 KA relative to UGCAUGU
10,B10,0.0729 KA relative to UGCAUGU
11,B11,0.268 KA relative to UGCAUGU
12,B12,0.134 KA relative to UGCAUGU
13,B13,0.0731 KA relative to UGCAUGU
14,B14,0.106 KA relative to UGCAUGU
15,B15,0.12 KA relative to UGCAUGU
16,B16,0.155 KA relative to UGCAUGU
17,B17,0.0808 KA relative to UGCAUGU
18,B18,0.0681 KA relative to UGCAUGU
19,B19,0.11 KA relative to UGCAUGU
20,B20,0.0981 KA relative to UGCAUGU
